# Data published in the supplement of paper PMC10037445.
# The full ranking holds about 2,900 compounds; the median of “IRF Lucia reporter activity, fold change vs agonist alone” is about 0.9, and the highest 2% start at about 2.8. The list shows a part of the results.
# Tests used:
# RAW-Dual [1] = assay: IRF Lucia reporter activity, fold change vs agonist alone; cytotoxicity flag (confluency mask): not cytotoxic; higher = enhanced IRF activity
# Outline: (§1)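 Reporter activity is given as fold change relative to agonist-alone wells. To measure it, 50 nL of library stock was pin-tooled onto RAW-Dual macrophages (50,000 cells/well, DMEM, 384-well plates), a PRR agonist followed 1 h later, and cells stayed at 37 °C, 5% CO2. Twenty hours on, supernatant was assayed for IRF (QuantiLuc luminescence) and NF-κB (QuantiBlue, 620 nm absorbance), and wells under 70% of agonist-control IncuCyte confluency in both mask sets were marked cytotoxic.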
# RAW-Dual [2] = assay: IRF Lucia reporter activity, fold change vs agonist alone; higher = enhanced IRF activity; conditions: agonist: MPLA (TLR4) […]
# Outline: as §1
# RAW-Dual [3] = assay: IRF Lucia reporter activity, fold change vs agonist alone; cytotoxicity flag (confluency mask): cytotoxic (confluency <70% of control); higher = enhanced IRF activity
# Outline: as §1
# [4] = agonist: 3'3'-cGAMP (STING) 10 ug/mL
# [5] = library stock concentration (final ~1000-fold dilution): 10 mM, cytotoxicity flag (confluency mask): not cytotoxic
smiles,measurement,setting,value
COc1ccc(C2(C#N)CCC(C(=O)O)CC2)cc1OC1CCCC1 (stereo not given) (library stock concentration (final ~1000-fold dilution): 10 mM),IRF Lucia reporter activity,RAW-Dual [1]; [4],0.983
same,IRF Lucia reporter activity,RAW-Dual [1]; agonist: LPS (TLR4) 0.1 ug/mL,0.852
COc1ccc(C2(C#N)CCC(C(=O)O)CC2)cc1OC1CCCC1 (stereo not given),IRF Lucia reporter activity,RAW-Dual [2]; [5],0.779
OB1OCc2cc(F)ccc21,IRF Lucia reporter activity,RAW-Dual [2]; [5],0.869
OB1OCc2cc(F)ccc21 (library stock concentration (final ~1000-fold dilution): 10 mM),IRF Lucia reporter activity,RAW-Dual [1]; [4],0.695
same,IRF Lucia reporter activity,RAW-Dual [1]; agonist: LPS (TLR4) 0.1 ug/mL,1.06
O=c1ccc2cc(O)c(O)cc2o1,IRF Lucia reporter activity,RAW-Dual [2]; [5],1.02
O=c1ccc2cc(O)c(O)cc2o1 (library stock concentration (final ~1000-fold dilution): 10 mM),IRF Lucia reporter activity,RAW-Dual [1]; [4],0.737
same,IRF Lucia reporter activity,RAW-Dual [1]; agonist: LPS (TLR4) 0.1 ug/mL,1.31
NC(=O)c1ncn(C2OC(CO)C(O)C2O)c1O (stereo not given),IRF Lucia reporter activity,"RAW-Dual [2]; library stock concentration (final ~1000-fold dilution): 10 mM water, cytotoxicity flag (confluency mask): not cytotoxic",1.34
NC(=O)c1ncn(C2OC(CO)C(O)C2O)c1O (stereo not given) (library stock concentration (final ~1000-fold dilution): 10 mM water),IRF Lucia reporter activity,RAW-Dual [1]; [4],1.2
same,IRF Lucia reporter activity,RAW-Dual [1]; agonist: LPS (TLR4) 0.1 ug/mL,1.32
CCCCCCCN(CC)CCCC(O)c1ccc(NS(C)(=O)=O)cc1.CCCCCCCN(CC)CCCC(O)c1ccc(NS(C)(=O)=O)cc1.O=C(O)/C=C/C(=O)O (stereo not given) (library stock concentration (final ~1000-fold dilution): 10 mM),IRF Lucia reporter activity,RAW-Dual [1]; [4],0.557
same,IRF Lucia reporter activity,RAW-Dual [1]; agonist: LPS (TLR4) 0.1 ug/mL,0.979
CCCCCCCN(CC)CCCC(O)c1ccc(NS(C)(=O)=O)cc1.CCCCCCCN(CC)CCCC(O)c1ccc(NS(C)(=O)=O)cc1.O=C(O)/C=C/C(=O)O (stereo not given),IRF Lucia reporter activity,RAW-Dual [2]; [5],1.05
Br.NC(=O)C(c1ccccc1)(c1ccccc1)C1CCN(CCc2ccc3c(c2)CCO3)C1 (stereo not given) (library stock concentration (final ~1000-fold dilution): 10 mM),IRF Lucia reporter activity,RAW-Dual [1]; [4],0.439
same,IRF Lucia reporter activity,RAW-Dual [1]; agonist: LPS (TLR4) 0.1 ug/mL,1.24
Br.NC(=O)C(c1ccccc1)(c1ccccc1)C1CCN(CCc2ccc3c(c2)CCO3)C1 (stereo not given),IRF Lucia reporter activity,RAW-Dual [2]; [5],1.17
CCC1=CC2CN(C1)Cc1c([nH]c3ccccc13)C(C(=O)OC)(c1cc3c(cc1OC)N(C)C1C(O)(C(=O)OC)C(OC(C)=O)C4(CC)C=CCN5CCC31C54)C2 (stereo not given) (library stock concentration (final ~1000-fold dilution): 10 mM),IRF Lucia reporter activity,RAW-Dual [3]; [4],0.371
same,IRF Lucia reporter activity,RAW-Dual [3]; agonist: LPS (TLR4) 0.1 ug/mL,2.95
CCC1=CC2CN(C1)Cc1c([nH]c3ccccc13)C(C(=O)OC)(c1cc3c(cc1OC)N(C)C1C(O)(C(=O)OC)C(OC(C)=O)C4(CC)C=CCN5CCC31C54)C2 (stereo not given),IRF Lucia reporter activity,"RAW-Dual [2]; library stock concentration (final ~1000-fold dilution): 10 mM, cytotoxicity flag (confluency mask): cytotoxic (confluency <70% of control)",2.68
O=C(Nc1cccc(C(F)(F)F)c1)Nc1cc(S(=O)(=O)NC2CC2)ccc1-c1ccsc1,IRF Lucia reporter activity,RAW-Dual [2]; [5],0.98
O=C(Nc1cccc(C(F)(F)F)c1)Nc1cc(S(=O)(=O)NC2CC2)ccc1-c1ccsc1 (library stock concentration (final ~1000-fold dilution): 10 mM),IRF Lucia reporter activity,RAW-Dual [1]; [4],0.438
same,IRF Lucia reporter activity,RAW-Dual [1]; agonist: LPS (TLR4) 0.1 ug/mL,0.902
Cl.c1ccc(CC2=NCCN2)cc1,IRF Lucia reporter activity,RAW-Dual [2]; [5],1.12
Cl.c1ccc(CC2=NCCN2)cc1 (library stock concentration (final ~1000-fold dilution): 10 mM),IRF Lucia reporter activity,RAW-Dual [1]; [4],1.09
same,IRF Lucia reporter activity,RAW-Dual [1]; agonist: LPS (TLR4) 0.1 ug/mL,1.08
CC(C(=O)O)c1ccc2c(c1)[nH]c1ccc(Cl)cc12 (stereo not given),IRF Lucia reporter activity,RAW-Dual [2]; [5],1.05
CC(C(=O)O)c1ccc2c(c1)[nH]c1ccc(Cl)cc12 (stereo not given) (library stock concentration (final ~1000-fold dilution): 10 mM),IRF Lucia reporter activity,RAW-Dual [1]; [4],1.11
same,IRF Lucia reporter activity,RAW-Dual [1]; agonist: LPS (TLR4) 0.1 ug/mL,0.508
CC(NC(=O)C(Cc1ccccc1)NC(=O)OCc1ccccc1)C(=O)CF (stereo not given) (library stock concentration (final ~1000-fold dilution): 10 mM),IRF Lucia reporter activity,RAW-Dual [1]; [4],0.98
same,IRF Lucia reporter activity,RAW-Dual [1]; agonist: LPS (TLR4) 0.1 ug/mL,1.27
CC(NC(=O)C(Cc1ccccc1)NC(=O)OCc1ccccc1)C(=O)CF (stereo not given),IRF Lucia reporter activity,RAW-Dual [2]; [5],1.29
CC(C)(C)NC(=O)C1CCC2C3CCC4NC(=O)C=CC4(C)C3CCC12C (stereo not given),IRF Lucia reporter activity,RAW-Dual [2]; [5],1.03
CC(C)(C)NC(=O)C1CCC2C3CCC4NC(=O)C=CC4(C)C3CCC12C (stereo not given) (library stock concentration (final ~1000-fold dilution): 10 mM),IRF Lucia reporter activity,RAW-Dual [1]; [4],1.08
same,IRF Lucia reporter activity,RAW-Dual [1]; agonist: LPS (TLR4) 0.1 ug/mL,0.872
C[C@H]1[C@@H](O)O[C@@H]2OC3(C)CC[C@H]4[C@H](C)CC[C@@H]1[C@@]24OO3 (library stock concentration (final ~1000-fold dilution): 10 mM),IRF Lucia reporter activity,RAW-Dual [1]; [4],0.345
same,IRF Lucia reporter activity,RAW-Dual [1]; agonist: LPS (TLR4) 0.1 ug/mL,0.834
CC(C)c1cc2c(cc1S(=O)(=O)O)[C@@]1(C)CCC[C@@](C)(C(=O)O)[C@@H]1CC2 (library stock concentration (final ~1000-fold dilution): 10 mM),IRF Lucia reporter activity,RAW-Dual [1]; [4],0.936
same,IRF Lucia reporter activity,RAW-Dual [1]; agonist: LPS (TLR4) 0.1 ug/mL,0.763
Cc1ccccc1C(=O)Nc1ccc(C(=O)N2CCCC(O)c3cc(Cl)ccc32)c(C)c1 (stereo not given) (library stock concentration (final ~1000-fold dilution): 10 mM),IRF Lucia reporter activity,RAW-Dual [1]; [4],0.765
same,IRF Lucia reporter activity,RAW-Dual [1]; agonist: LPS (TLR4) 0.1 ug/mL,0.817
Cc1ccccc1C(=O)Nc1ccc(C(=O)N2CCCC(O)c3cc(Cl)ccc32)c(C)c1 (stereo not given),IRF Lucia reporter activity,RAW-Dual [2]; [5],0.901
NC(=O)c1ccc(-c2nc(-c3ccc4c(c3)OCCO4)c(-c3ccccn3)[nH]2)cc1 (library stock concentration (final ~1000-fold dilution): 10 mM),IRF Lucia reporter activity,RAW-Dual [1]; [4],0.616
same,IRF Lucia reporter activity,RAW-Dual [1]; agonist: LPS (TLR4) 0.1 ug/mL,1.29
